Assay results: patent US20220056142A1
Where a chain is given by its changes, count along the chain named.

What was measured:
[1] = biological target: T1, mouse FGFR3 with the G380R mutation, in primary rib chondrocytes of the achondroplasia (Ach) mouse model (mouse), Q61851
[2] = biological target: T1, mouse FGFR3 with the G380R mutation, in …; remark: listed apart in the source
[3] = biological target: T1, mouse FGFR3 with the G380R mutation, in …; remark: listed apart in the source

T1 sequence (Q61851 21-801, stated change not applied): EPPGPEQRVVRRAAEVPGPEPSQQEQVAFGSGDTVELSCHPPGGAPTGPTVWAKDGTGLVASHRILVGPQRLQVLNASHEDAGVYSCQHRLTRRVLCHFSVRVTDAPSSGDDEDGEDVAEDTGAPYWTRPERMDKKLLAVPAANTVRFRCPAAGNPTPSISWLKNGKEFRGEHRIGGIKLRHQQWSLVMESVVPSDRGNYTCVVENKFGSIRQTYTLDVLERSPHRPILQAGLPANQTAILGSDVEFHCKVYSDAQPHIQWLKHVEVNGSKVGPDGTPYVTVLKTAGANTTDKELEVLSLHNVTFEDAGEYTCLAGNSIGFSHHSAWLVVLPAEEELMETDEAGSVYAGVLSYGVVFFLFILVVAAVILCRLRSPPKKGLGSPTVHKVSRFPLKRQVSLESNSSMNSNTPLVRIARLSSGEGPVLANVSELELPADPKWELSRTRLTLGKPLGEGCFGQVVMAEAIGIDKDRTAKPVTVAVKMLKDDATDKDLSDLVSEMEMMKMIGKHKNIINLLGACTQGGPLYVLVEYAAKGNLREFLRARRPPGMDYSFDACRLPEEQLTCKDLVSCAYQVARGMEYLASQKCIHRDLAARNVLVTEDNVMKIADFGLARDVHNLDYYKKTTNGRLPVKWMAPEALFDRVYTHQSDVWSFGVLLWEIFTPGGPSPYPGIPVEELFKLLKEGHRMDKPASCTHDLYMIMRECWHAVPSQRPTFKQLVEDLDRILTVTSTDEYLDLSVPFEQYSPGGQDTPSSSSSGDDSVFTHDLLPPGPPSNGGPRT

B1: KC18_Hu18 (antibody, human IgG1, kappa)
heavy: EVQLVQSGAEVKKPGATVKLSCKASGDTFTDFEIHWVQQAPGKGLEWIGDVDPETGGTAYAEKFQGRATLTADRSTDTAYMELSSLRSEDTAVYYCTRTYDGYPYAFDYWGQGTLVTVSS[human IgG1 constant region left out here]
light: DIVMTQSPDSLAVSLGERATINCKSSQSVLYSNNNKNYLAWYQQKPGQSPKLLIYWASTRESGVPDRFSGSGSGTDFTLTISSVQAEDVAVYYCQQYYSYRTFGGGTKVEIKRTVAAPSVFIFPPSDEQLKSGTASVVCLLNNFYPREAKVQWKVDNALQSGNSQESVTEQDSKDSTYSLSSTLTLSKADYEKHKVYACEVTHQGLSSPVTKSFNRGEC
[1]
  IC50, inhibition of FGF18-stimulated Erk phosphorylation (pErk/Erk %, HTRF), 'Hu18 on Ach PRCs': 0.54 µg/ml

B2: KC18_Hu44 (antibody, human IgG1, kappa)
heavy: B1 heavy with M81L
light: B1 light
[2]
  IC50, inhibition of FGF18-stimulated Erk phosphorylation (pErk/Erk ratio %, HTRF), 'Hu44 on Ach PRCs': 0.29 µg/ml

B3: KC18_Hu46 (antibody, human IgG1, kappa)
heavy: B1 heavy with M81L
light: B1 light with A19V, N33D, N35Q, W56F, V109L
[3]
  IC50, inhibition of FGF18-stimulated Erk phosphorylation (pErk/Erk %, HTRF), 'Hu46 on Ach PRCs': 0.595 µg/ml
